The other results are listed elsewhere or left out. Each Rep nickase domain was tested in vitro on the same pool of single strands for 1 h at 37 °C with 3 µM enzyme; only the middle of the 90-letter strands is printed. Uncut reads are compared with the no-enzyme pool on a log2 scale; uncut sequences lie near 0, cut ones below; no hit call is given. Because reads are shares of a total, they shift together; values above 0 arise when much of the pool is cut.
What was measured:
Assay in all cases: uncleaved DNA left, log2 of reads against the no-enzyme library (log2 ratio); higher = less cleavage (more negative = more Rep cleavage of the k-mer); sequences stand for … in CTCGTCCG…ACCGGAGA
[1] = system: T1, Rep nickase domain of Muscovy duck circovirus
T1 sequence (protein, residues 1-111, tag omitted): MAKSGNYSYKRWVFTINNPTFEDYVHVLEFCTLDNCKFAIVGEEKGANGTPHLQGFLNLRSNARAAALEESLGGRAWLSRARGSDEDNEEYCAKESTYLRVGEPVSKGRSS
Protocol: (§1)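 A pool of 90-nt single-stranded DNAs with seven random bases just before the constant AC of the nick site (name = the seven bases) was cut by 3 µM recombinant His6-SUMO-tagged Rep nickase domain (300 nM DNA, 50 mM HEPES pH 8.0, 50 mM NaCl, 1 mM MnCl2, 1 h, 37 °C, three replicates). Uncut DNA was amplified and sequenced.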

[2] = system: T2, Rep nickase domain of banana bunchy top virus
T2 sequence (protein, residues 1-94, tag omitted): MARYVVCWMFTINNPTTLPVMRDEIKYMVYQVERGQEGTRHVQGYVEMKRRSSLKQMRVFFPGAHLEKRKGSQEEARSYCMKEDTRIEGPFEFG
Protocol: as §1

[3] = system: T3, Rep nickase domain of cabbage leaf curl virus
T3 sequence (protein, residues 1-116, tag omitted): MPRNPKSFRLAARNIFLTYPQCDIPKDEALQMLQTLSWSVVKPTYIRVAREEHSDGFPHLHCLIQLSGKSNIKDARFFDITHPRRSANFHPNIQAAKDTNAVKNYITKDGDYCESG
Protocol: as §1

[4] = system: T4, Rep nickase domain of chickpea chlorotic dwarf virus
T4 sequence (protein, residues 1-124, tag omitted): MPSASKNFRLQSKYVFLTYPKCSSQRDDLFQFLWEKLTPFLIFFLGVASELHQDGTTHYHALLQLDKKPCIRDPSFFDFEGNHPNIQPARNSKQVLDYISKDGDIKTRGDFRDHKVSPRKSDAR
Protocol: as §1

[5] = system: T5, Rep nickase domain of faba bean necrotic yellows virus
T5 sequence (protein, residues 1-98, tag omitted): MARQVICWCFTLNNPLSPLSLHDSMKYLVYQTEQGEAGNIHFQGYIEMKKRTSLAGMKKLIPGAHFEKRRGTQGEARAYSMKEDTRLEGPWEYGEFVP
Protocol: as §1

[6] = system: T6, Rep nickase domain of maize striate mosaic virus
T6 sequence (protein, residues 1-117, tag omitted): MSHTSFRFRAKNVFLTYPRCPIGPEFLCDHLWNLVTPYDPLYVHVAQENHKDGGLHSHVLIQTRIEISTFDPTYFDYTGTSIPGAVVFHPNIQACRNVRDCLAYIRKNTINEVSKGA
Protocol: as §1

[7] = system: T7, Rep nickase domain of porcine circovirus 2
T7 sequence (protein, residues 2-116, tag omitted): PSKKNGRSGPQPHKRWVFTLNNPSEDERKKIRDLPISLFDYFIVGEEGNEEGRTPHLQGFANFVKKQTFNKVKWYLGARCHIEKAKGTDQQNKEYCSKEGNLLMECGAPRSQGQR
Protocol: as §1

[8] = system: T8, Rep nickase domain of tomato golden mosaic virus
T8 sequence (protein, residues 1-124, tag omitted): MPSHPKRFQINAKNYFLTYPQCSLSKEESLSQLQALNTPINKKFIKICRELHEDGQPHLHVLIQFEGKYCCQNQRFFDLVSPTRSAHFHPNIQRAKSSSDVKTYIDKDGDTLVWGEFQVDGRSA
Protocol: as §1

[9] = system: T9, Rep nickase domain of tomato yellow leaf curl virus
T9 sequence (protein, residues 1-136, tag omitted): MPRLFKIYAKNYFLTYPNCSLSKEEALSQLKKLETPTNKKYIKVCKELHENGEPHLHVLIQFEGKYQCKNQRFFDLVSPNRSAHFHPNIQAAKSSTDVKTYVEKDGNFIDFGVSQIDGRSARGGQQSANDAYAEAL
Protocol: as §1

[10] = system: T10, Rep nickase domain of wheat dwarf virus
T10 sequence (protein, residues 1-137, tag omitted): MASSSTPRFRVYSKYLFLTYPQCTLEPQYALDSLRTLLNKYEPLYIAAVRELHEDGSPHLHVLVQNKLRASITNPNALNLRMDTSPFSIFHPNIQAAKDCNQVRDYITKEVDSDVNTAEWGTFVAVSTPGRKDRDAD
Protocol: as §1

Sequence	uncleaved DNA left (log2) [1]	uncleaved DNA left (log2) [2]	uncleaved DNA left (log2) [3]	uncleaved DNA left (log2) [4]	uncleaved DNA left (log2) [5]	uncleaved DNA left (log2) [6]	uncleaved DNA left (log2) [7]	uncleaved DNA left (log2) [8]	uncleaved DNA left (log2) [9]	uncleaved DNA left (log2) [10]
GCCAACT	-0.024	-0.0706	0.0332	-1.79	-0.0824	-0.0611	-0.185	-0.0386	-0.0965	-0.0767
GAATCGG	0.134	0.138	0.611	1.64	0.0843	2.11	0.196	0.252	0.0847	0.16
ACCGATA	-0.0151	-0.0626	-0.242	-0.854	0.0595	-0.621	0.117	0.0714	0.00307	0.148
AGCTGAC	0.0776	0.00492	-0.0539	0.838	-0.0277	0.177	0.205	0.0374	-0.00709	-0.142
GGAGCGG	-0.0384	-0.0805	0.281	0.806	-0.0901	1.01	0.0909	0.0928	-0.124	-0.0301
CCTCACT	-0.037	-0.103	-0.192	-2.24	-0.088	-0.564	-0.349	0.00432	-0.159	0.00227
TCATACC	-0.148	0.00545	-0.0864	-1.43	-0.0958	-0.392	-2.8	-0.0143	0.0447	-0.0381
GTGCACC	0.0289	0.0608	0.223	0.817	0.012	1.71	0.0435	0.0858	0.0963	0.0464
CTCGGGT	0.156	0.169	0.472	0.82	0.0409	1.31	0.172	0.0732	0.149	0.0588
ATGCTTG	0.0464	0.00476	-0.182	-0.744	-0.0121	-0.536	0.194	0.0592	0.0135	0.0409
TAGAAAT	0.0761	-0.309	-0.187	-1.18	-0.228	0.356	-3.15	0.17	0.111	0.131
TCACCAC	-0.041	-0.0287	0.00946	-0.74	-0.000707	-0.451	-0.213	0.0161	-0.0188	0.0257
AACCCGC	-0.119	-0.195	0.024	0.433	-0.144	-0.617	-0.256	-0.341	-0.172	-0.148
ACGTGAA	-0.134	-0.133	-0.211	-0.00482	0.0483	-0.394	-0.153	-0.137	0.00737	0.000419
GAAAAGT	0.119	0.121	-0.069	-1.06	0.0478	-0.0127	-0.0555	-0.00308	0.0392	0.0091
CGTATCT	0.116	0.149	0.172	-1.12	0.183	0.0698	-0.926	0.11	0.218	0.195
TGAATGA	0.0434	-0.0332	0.0217	0.43	-0.0976	0.55	-0.03	-0.0292	-0.099	-0.0319
TAGCACG	0.0746	0.0746	-0.631	-0.494	0.136	-0.989	0.179	-0.0649	-0.0279	-0.098
CGTTTTC	0.0148	-0.0683	0.0686	-0.0137	-0.0354	-0.418	-0.0239	-0.113	-0.038	-0.0416
GGCACGA	0.0478	-0.0332	0.592	1.44	-0.00106	1.72	0.222	-0.00578	0.101	0.141

Sequence	uncleaved DNA left (log2) [1]	uncleaved DNA left (log2) [2]	uncleaved DNA left (log2) [3]	uncleaved DNA left (log2) [4]	uncleaved DNA left (log2) [5]	uncleaved DNA left (log2) [6]	uncleaved DNA left (log2) [7]	uncleaved DNA left (log2) [8]	uncleaved DNA left (log2) [9]	uncleaved DNA left (log2) [10]
CTGGAAA	0.138	0.116	0.245	0.442	0.296	0.134	0.0738	0.144	0.105	0.165
GAAAAAA	0.00141	0.0393	0.223	0.308	0.0234	0.416	0.166	0.0688	0.0736	0.0585
TTTCTCT	0.00456	0.00325	0.103	-1.93	0.0764	-0.224	-0.328	-0.0371	-0.00268	-0.0451
AGTTCTG	-0.0454	0.0117	0.00437	0.595	-0.126	1.27	0.0093	0.0378	-0.0871	-0.0163
TACCCAA	-0.0952	0.0246	-0.0959	-1.52	-0.128	-0.414	-1.26	-0.0618	0.0293	0.107
TACACAG	0.0458	-0.0328	-0.692	-0.76	-0.0193	-0.98	0.152	-0.121	-0.00304	-0.109
ACACCTC	-0.07	-0.0973	-0.108	0.218	0.0125	0.232	0.00374	0.0394	-0.223	0.0169
ACAGTCG	0.0205	-0.0651	-0.474	0.954	0.00702	0.181	0.22	-0.0535	0.00229	-0.0399
TAGTGAA	-0.0383	-0.0438	0.116	-0.00826	0.00144	0.517	-2.57	0.0656	0.0461	-0.0456
GTGCGGA	-0.13	-0.0311	-0.255	0.202	-0.0916	-0.421	-0.0164	-0.0523	-0.0429	-0.0965
GCAAACC	-0.0213	-0.0677	0.00929	-0.186	-0.0627	-0.283	-0.324	-0.0137	0.00973	-0.0561
TTCAGTC	0.0422	0.0555	0.221	-0.00056	0.049	-0.687	0.0756	-0.0827	0.0665	-0.00293
TTATACC	-0.576	0.0159	0.102	-1.16	-0.0678	-0.131	-2.92	-0.168	-0.0603	-0.0505
TGTAGGG	0.114	0.116	0.255	0.526	0.0234	0.102	0.172	0.173	-0.00892	-0.0813
GGAATGA	0.0471	0.154	0.762	1.54	-0.00649	1.92	0.222	0.113	0.0789	0.142
TGCCCTG	0.0593	-0.124	0.0117	0.253	-0.107	0.995	-0.0494	-0.131	-0.0291	-0.0215
CATCACT	-0.173	-0.00492	-0.532	-2.95	-0.016	-0.992	-1.47	-0.0965	-0.0265	-0.187
TACCCTA	-0.157	-0.125	-0.189	-2.76	-0.196	-0.397	-1.35	-0.184	-0.0121	-0.144
ATAGCCG	0.0212	0.0284	-0.891	-0.00388	0.0807	-0.871	0.128	-0.107	-0.031	-0.161
GTTACTT	-0.0455	0.124	0.268	0.598	-0.0696	1.69	-0.0225	0.0417	0.175	0.164

Sequence	uncleaved DNA left (log2) [1]	uncleaved DNA left (log2) [2]	uncleaved DNA left (log2) [3]	uncleaved DNA left (log2) [4]	uncleaved DNA left (log2) [5]	uncleaved DNA left (log2) [6]	uncleaved DNA left (log2) [7]	uncleaved DNA left (log2) [8]	uncleaved DNA left (log2) [9]	uncleaved DNA left (log2) [10]
CACCGCC	0.0506	-0.0198	-0.106	-0.322	0.0581	-0.757	0.0672	0.0325	-0.105	-0.0557
GACTCTG	0.0978	-0.0674	0.0506	0.424	-0.029	0.679	-0.0923	0.0198	-0.00128	-0.0225
GGAGGAT	-0.0227	0.0282	0.296	1.53	-0.0927	1.98	0.125	-0.0364	0.0195	-0.00779
GCGCGTC	-0.0326	-0.118	-0.144	-0.215	-0.051	-0.317	0.082	0.107	-0.0493	-0.074
TGGGCGA	0.0826	0.0509	0.124	0.423	0.164	0.0101	0.211	0.136	0.079	0.017
AAGTCTA	-0.0268	-0.0657	-0.113	-2.36	-0.0711	0.0809	-2.79	0.0757	0.0679	-0.00494
TAATACG	-0.0056	0.0365	-0.827	-1.28	0.0792	-1.13	-0.232	0.127	0.0296	-0.00144
GGCGTCG	0.0513	0.0286	-0.201	0.0744	-0.0709	-0.000631	0.139	-0.0346	-0.195	-0.0763
ATATATA	0.0412	-0.0413	-0.146	-1.86	-0.00535	-0.652	-0.146	-0.00463	-0.0245	-0.00522
GCTCCTC	-0.0128	0.191	0.261	0.471	0.015	0.709	0.214	0.136	0.104	0.154
GCTTTAT	-0.042	0.124	0.196	0.373	0.102	0.346	-0.192	0.0948	0.0311	-0.00195
CTGCCTA	-0.106	-0.0652	-0.154	-0.789	-0.0615	-0.764	-0.231	-0.0925	-0.00845	-0.0694
ATCCGAA	-0.0193	-0.177	0.014	0.22	-0.0895	-0.436	-0.00858	-0.0933	-0.126	-0.0115
ACAGCGC	-0.127	-0.1	-0.343	0.56	-0.146	-0.143	-0.0854	-0.141	-0.17	-0.128
GAGGGAG	0.236	0.212	0.19	0.721	0.0785	0.181	0.355	0.196	0.13	0.0961
CATTTCG	-0.0611	-0.0889	-0.462	0.95	-0.0821	0.0505	0.0724	-0.0908	0.151	-0.0891
GGATCGT	0.0248	0.151	0.764	1.67	0.0278	2	0.125	-0.00674	0.11	0.178
GTTCGCT	-0.00802	-0.0544	0.249	0.457	0.0334	0.523	0.104	-0.0161	0.137	-0.0129
AGTGGCC	0.00155	0.0988	0.132	0.637	-0.0328	1.06	0.072	0.157	0.0766	0.0685
CTATGCC	0.126	-0.0679	-0.316	-0.55	0.0752	-1.03	-0.335	0.00914	0.0714	-0.0644
